± gives the standard deviation of the averaged measurements. Some of the results follow.
test system: PfAP2-I AP2 domain 3 (GST-tagged); experiment: gcPBM binding intensity (ln(normalized median fluorescence intensity)); higher = stronger DNA binding
In short: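 Alexa488 anti-GST antibody, scanned at 488 nm, detected GST-tagged P. falciparum DNA-binding domains that had been expressed in E. coli and incubated for 1 h on an Agilent 4 × 180k array. The array carried primer-extended double-stranded 36-bp intergenic genomic probes and negative controls. Binding intensity is the highest Masliner-normalised natural-log median intensity across replicate spots of either orientation of each probe.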

Sequence | gcPBM binding intensity (ln)
GTTCTTTTATATATTTGTACATATTTATATATATTG [XGTACX_site4078] | 8.45 ± 0.43
GTCATAAATGTACGCACACATACATAAACATATACA [CACACA_site650] | 8.66 ± 0.28
ATATTATATATATAGGTGCGAGTATTTTATAAATAT [GTGCAC_site9889] | 8.49 ± 0.47
TAAGTATACACATACACACACACACTAATAAAAAAA [CACACA_site8035] | 8 ± 0.41
TATACACCCGGACACACACACATATATATATATATA [CACACA_site5030] | 9.33 ± 0.21
AAATATAAAATTTATTGTACATTATATATAATATAT [XGTACX_site1416] | 7.67 ± 0.28
TGATATATTTATATTACACACTTAAACGAAAAAAAA [CACACA_site3021] | 7.89 ± 0.48
TATTATAATATTTATACACACATAATTTTGATAAAT [CACACA_site583] | 7.68 ± 0.4
ATATATATATTATATGCACACGTTAAAATTTCATAT [CACACA_site4552] | 9.58 ± 0.27
TAAAAATATTAATAAACACACAATGAGATATTGAAT [CACACA_site3153] | 7.49 ± 0.79
AAAATTCATATATACACACACGCACATATATATATA [CACACA_site90] | 9.38 ± 0.2
GAATGTCTAATTTTGATGCACACTTTTGTGCAATTA [CACACA_site2902] | 9.95 ± 0.35
TTATATTATTCGTGTGTGCACGATATTTCATAATTG [GTGCAC_site9767] | 10.1 ± 0.2
CAAAAAATTCAACACACACACACACCGATAAATAAA [CACACA_site8330] | 7.83 ± 0.22
TTGTCCCTATAAGGGGAACACACATAAATGAATATA [CACACA_site8250] | 7.62 ± 0.46
AAAACTATTTGTAAAAGTACATAATAAATAAATAAA [XGTACX_site7922] | 7.83 ± 0.59
ATAATGTTTTATAATACACACATTATGTATATAAAT [CACACA_site4077] | 7.92 ± 0.39
CGTATTTATAGAATTACACACCATATTGTAATTATT [CACACA_site7722] | 7.82 ± 0.44
GTGTTTTTATTATTTTGTACACATATATTTAATATT [XGTACX_site2109] | 8.85 ± 0.11

Sequence | gcPBM binding intensity (ln)
TTTTTTTTGTAATACGCATGCTAAAAATATTTATAA [TGCATGCA_site656] | 7.84 ± 0.59
ATTTAAATAAGATATACACACAAGTAGAAGACTATG [CACACA_site806] | 7.8 ± 0.7
TTTTCGATGTTGGTAGGAAGTTTGGTACACGTAGTA [TGCATGCA_negctrl_site145] | 8.05 ± 0.49
ATAACTTTATTCAGTTTGCACTTTTATAACAAAAGA | 9.57 ± 0.28
ATTTTTTATATTTAGTGTACATGTTTTAATTTATAA [XGTACX_site7512] | 8.21 ± 0.63
CTTATATAATTCGATAGTACATATTTTTATATATAT [XGTACX_site4045] | 7.88 ± 0.47
TATATATATATAAGCACACAAACAAAAAAAATTATA [CACACA_site3897] | 9.2 ± 0.19
TTTTCTTTTTTTTTTGTGCACATAATATATAATTAT | 10.8 ± 0.14
ATATTTTTTAGTAAGACGAAATAAATAAATCTTTAT [CACACA_negctrl_site1778] | 7.44 ± 0.65
ATTGAATATGTAAATGCACACCAAAAAAAAAAAAAA [CACACA_site9189] | 9.68 ± 0.3
TTTTTCCTATTTTTAGTGCACATATAAATAAATAAA [GTGCAC_site9821] | 11.6 ± 0.23
TATATATATATATATTGTACACATTGTGTTTAAATA [XGTACX_site5104] | 9.43 ± 0.44
AATAGAATGTAATATACACACATATATTTCTCTTTT [CACACA_site2630] | 7.47 ± 0.45
TTTTTATTGTTAATTTTAATTTTTTTTTTTTAATGC [CACACA_negctrl_site162] | 7.33 ± 0.66
TTGTAACCTATGCACGCACACAAGAAAAAAACAAAA [CACACA_site3775] | 9.28 ± 0.13
TTTCTTTTTAAATGCTGTACAAAGGGTGACGTTAAA [XGTACX_site4724] | 8.26 ± 0.33
TATTACACATATTATACACACATATATTATAGATAT [CACACA_site6839] | 7.95 ± 0.41
TATTCCAAATTTACTAGTACATAATCCATCCGATAA [XGTACX_site1558] | 7.63 ± 0.52
TTTCCTTATAAAAATACACACAAACTTTAATTAAAA [CACACA_site7710] | 7.78 ± 0.38

Sequence | gcPBM binding intensity (ln)
TTGTGAAACATCAAGAAAAAGAAATAATAAAAAGAA [GTGCAC_negctrl_site38] | 7.75 ± 0.61
GTTGAACATATATGCACACACATAAAATAAAAAAAA [CACACA_site2413] | 8.88 ± 0.13
TTATATTAATATATATGTACATATATTTTTTTTATA [XGTACX_site6981] | 7.65 ± 0.3
ATACAACAATGTGAATTATATATGGATGGAGAATGA [GTGCAC_negctrl_site148] | 7.88 ± 0.71
AAAAGGTATCCACATACGCACACCAAAAAAAAAAAT [CACACA_site347] | 8.21 ± 0.19
TCTTTTTTTTTTTTTTTTTTTTTTTATTTATTCATA [CACACA_negctrl_site1827] | 7.8 ± 0.47
TTCTTAAGGAACGAACGTACAGAATAAAAAGTAAAA [XGTACX_site4294] | 8.04 ± 0.66
ACGTAAGCGAATAAAAGTACATATATTAAAAAAAAA [XGTACX_site4458] | 8.09 ± 0.33
AATAGGAAGACTATTTTGTATTTGATTTTTTATTCC [GTGCAC_negctrl_site453] | 7.42 ± 0.73
TAAGTATACGCATACACACACACACCCAAAAAAAAA [CACACA_site425] | 8.15 ± 0.4
CATTCAATTGAAAAATGTACAAAAATAAACATATGC [XGTACX_site1663] | 8.02 ± 0.56
TTTCTATATTGGCATACATGCAAGAACGAAAAGATT [TGCATGCA_site117] | 8.1 ± 0.64
TAAAAATTGCACAGAAGTACAGTATAAATATATATA [XGTACX_site3421] | 8.37 ± 0.38
ATAATATATGAGCAATGTACATATTTCTCATTGCAC [XGTACX_site2253] | 9.83 ± 0.78
GTTCCAGGCATTCGTGCGCACAAATAGAAACAATTA [GTGCAC_site9824] | 11.15 ± 0.035
TAAACATACCTATACACACACACACGCACACGCACA [CACACA_site6372] | 8.27 ± 0.4
ATAACTTGTATATATACACACACACCCTTTCTTTTT [CACACA_site8600] | 8.3 ± 0.71
TATATTATATTATACATACACACCCATATAATATGT [CACACA_site869] | 8.14 ± 0.64
TTAAGAAATAACAATGCACACATTTAGGTCTTTTAT [CACACA_site3285] | 9.53 ± 0.38
